Laboratory results taken from the BET-seq Pho4 binding data (Le et al. 2018).
Some of the results follow. These are noisy estimates, calculated here from bound and input reads.

biological target: T1, Pho4 (S. cerevisiae) (UniProt P07270); test: relative binding free energy (BET-seq); higher = weaker binding; conditions: reference: library average
T1 sequence: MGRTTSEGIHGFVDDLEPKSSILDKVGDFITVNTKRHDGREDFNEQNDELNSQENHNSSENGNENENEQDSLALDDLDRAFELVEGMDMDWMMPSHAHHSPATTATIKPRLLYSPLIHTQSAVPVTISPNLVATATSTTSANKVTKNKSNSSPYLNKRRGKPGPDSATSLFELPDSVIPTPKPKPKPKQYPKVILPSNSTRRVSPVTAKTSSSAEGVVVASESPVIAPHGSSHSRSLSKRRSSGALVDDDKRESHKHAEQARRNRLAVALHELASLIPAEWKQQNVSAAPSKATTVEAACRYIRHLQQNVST

Row | Sequence | relative binding free energy [kcal/mol]
1 | GATGTCACGTGAATGT | 0.35
2 | TTGTTCACGTGATTCC | 0.35
3 | GGGAACACGTGTTGCT | 0.09
4 | GGACCCACGTGGGGTG | -0.31
5 | CTCTTCACGTGTGTGT | 0.1
6 | TTGAGCACGTGCTGAT | -0.13
7 | TGTGTCACGTGTGTTT | 0.19
8 | GGGGTCACGTGGAAAT | 0.21
9 | TTATTCACGTGTTAAA | 0.36
10 | AAGCGCACGTGAGTGG | 0.14
11 | ATGGACACGTGTTAGA | 0.1
12 | GTAGGCACGTGACTGG | 0.04
13 | GTGTCCACGTGGTGCT | -0.07
14 | AAGGGCACGTGTAGGT | -0.15
15 | GTGTGCACGTGTGAGT | 0.05
16 | GGTTACACGTGATCTG | 0.17
17 | TCGTTCACGTGTTAAT | 0.21
18 | AGTCTCACGTGTGTTG | 0.2
19 | GCTTGCACGTGTACGT | 0.08
20 | TACTGCACGTGTGTGA | 0.06
21 | TGGGCCACGTGGTAGC | 0.04
22 | TATTCCACGTGGGTAG | -0.07
23 | TGTATCACGTGTATTA | 0.15
24 | TTTTCCACGTGCGTAT | 0.03
25 | AGTTGCACGTGTTGTA | -0.11

Row | Sequence | relative binding free energy [kcal/mol]
26 | GTCGACACGTGTTGTT | 0.17
27 | TACGTCACGTGCGGTT | 0
28 | ATGATCACGTGCTATG | 0.03
29 | ATGCGCACGTGGGAGT | -0.27
30 | GAGGACACGTGGCTGT | -0.03
31 | AATCGCACGTGGCGTG | 0.01
32 | CCGGACACGTGGGTTG | -0.06
33 | TGCTACACGTGGGTGA | -0.06
34 | TTGCGCACGTGAGTGA | 0.01
35 | CGTGGCACGTGAAATT | 0.24
36 | TGTTTCACGTGGTTAA | 0.31
37 | TATAGCACGTGTCATG | -0.09
38 | GAGGGCACGTGTTAGA | -0.11
39 | TGGGTCACGTGTGTAA | 0.21
40 | ATTATCACGTGTTATT | -0.01
41 | TAGGTCACGTGTATGA | 0.11
42 | GGGAGCACGTGTCTGT | -0.04
43 | CGGTTCACGTGTAATG | 0.21
44 | TGCTACACGTGAGGGA | 0.27
45 | GGAGGCACGTGGGGGG | -0.15
46 | GCTTGCACGTGGATGT | 0.01
47 | GTTTTCACGTGGAACG | 0.58
48 | GTAGGCACGTGCTAGT | -0.23
49 | ATATGCACGTGTCTTT | -0.03
50 | CGAGACACGTGAGGGG | 0.19

Row | Sequence | relative binding free energy [kcal/mol]
51 | GTGCGCACGTGAGTAG | 0.11
52 | CTGGACACGTGAGTGG | 0.3
53 | TGGAACACGTGAGGTC | 0.25
54 | ATCAACACGTGTTGGT | -0.04
55 | CGGGTCACGTGAGGTC | 0.23
56 | TGATTCACGTGAGTTC | 0.47
57 | ACTAGCACGTGAAGGG | 0.25
58 | TGCTTCACGTGGTGGC | 0.21
59 | GTGGGCACGTGTTTCG | -0.05
60 | TTATACACGTGGAGTG | 0.03
61 | TGGGTCACGTGTAGAC | 0.22
62 | AGTAACACGTGGATGG | 0
63 | TAGGACACGTGGTTTC | 0.01
64 | TGTGTCACGTGAAGGA | 0.32
65 | GTGTGCACGTGAATGT | 0.3
66 | GAGGACACGTGGTCGT | 0.12
67 | GACGGCACGTGGTGTC | -0.01
68 | GGTGCCACGTGGGAAA | -0.06
69 | AGCGTCACGTGGGATA | -0.14
70 | TTGTTCACGTGTAACA | 0.28
71 | CGTGGCACGTGGCTTA | -0.17
72 | GTAGACACGTGAGTTT | 0.35
73 | TATGTCACGTGTGGAG | 0.13
74 | AGGGACACGTGAGTGC | 0.24
75 | GGAGTCACGTGGACGG | 0.14

Row | Sequence | relative binding free energy [kcal/mol]
76 | GGCGGCACGTGCTGGT | -0.12
77 | TATTACACGTGTGCTG | -0.1
78 | CAGAGCACGTGTTTGT | -0.15
79 | ATGGGCACGTGGGTCA | -0.16
80 | TTTTGCACGTGACAGT | 0.05
81 | TATTACACGTGAGGTG | 0.29
82 | GGTGGCACGTGTTACA | -0.12
83 | ATTAGCACGTGCGATG | -0.03
84 | GGCTTCACGTGGGTTT | 0.32
85 | GTGTACACGTGAGTGA | 0.28
86 | AGGTACACGTGCGCTT | 0.13
87 | GTTTACACGTGGTGGG | 0.15
88 | ATGTTCACGTGTAGTT | 0.34
89 | TTTTCCACGTGTATAG | 0.23
90 | ATTGTCACGTGTCGCG | 0.05
91 | CAGTTCACGTGGAGGT | 0.15
92 | AATTGCACGTGGGGCG | -0.02
93 | TATGTCACGTGGTCAG | -0.03
94 | AATTGCACGTGAAGTA | 0.28
95 | GGCTACACGTGTTGCG | 0.25
96 | GTTTACACGTGTGGCG | 0.22
97 | CTTAGCACGTGTGGTG | 0.01
98 | TGCAGCACGTGGGCCG | -0.13
99 | CTAGGCACGTGGCGTA | -0.22
100 | TCTGGCACGTGAAGGC | 0.29

Row | Sequence | relative binding free energy [kcal/mol]
101 | GGGGGCACGTGTGGTC | 0.09
102 | TCTGGCACGTGTGAAG | -0.01
103 | GGTGACACGTGCTTGG | 0.01
104 | GTCGGCACGTGTTAGT | 0.13
105 | AGTGGCACGTGAGGTC | 0.16
106 | GACGGCACGTGATTTT | 0.24
107 | GATGGCACGTGATTTG | 0.03
108 | CTTTGCACGTGGTGCT | -0.1
109 | TTAGACACGTGGTGCA | -0.07
110 | TAATACACGTGGGGTG | -0.16
111 | AGCATCACGTGGTGGG | 0.06
112 | TGCGGCACGTGTGTGC | -0.06
113 | GGGATCACGTGTGATT | 0.38
114 | GGGTGCACGTGAGTTA | 0.24
115 | GGTGTCACGTGTTCTC | 0.13
116 | TTATACACGTGTTAAA | -0.11
117 | GGATGCACGTGGTACG | -0.13
118 | TTTGGCACGTGATTTC | 0.11
119 | AGTTGCACGTGCAGGA | -0.05
120 | CTGGTCACGTGTGGTC | 0.25
121 | AATGGCACGTGAAGGG | 0.1
122 | TCTTTCACGTGGTATT | 0.23
123 | TAGTGCACGTGTTCTG | -0.07
124 | ACGGGCACGTGGAAGT | -0.11
125 | TAGTTCACGTGTGACT | 0.3

Row | Sequence | relative binding free energy [kcal/mol]
126 | TAGGCCACGTGGCGTG | -0.11
127 | TTTATCACGTGGGCCG | 0.13
128 | AAAATCACGTGGTTAG | 0.04
129 | CGTGTCACGTGGACGT | 0.03
130 | TGTTACACGTGGGGTG | -0.11
131 | ATTGTCACGTGTGTCT | 0.14
132 | TTAGTCACGTGTAACA | 0.18
133 | GTAGTCACGTGATGAA | 0.24
134 | ATTTGCACGTGTTCGG | -0.03
135 | TTGTGCACGTGTATAG | -0.09
136 | AGGTGCACGTGTCGTG | 0.04
137 | GTTTACACGTGGGGGG | 0.09
138 | GTATGCACGTGGATGA | -0.07
139 | ATTTTCACGTGTTACA | 0.21
140 | CGGGGCACGTGCTGTA | -0.23
141 | TGGGCCACGTGTGCTT | 0.07
142 | AATTTCACGTGTAAAG | 0.22
143 | ATTATCACGTGAGTTT | 0.35
144 | GTGGGCACGTGCGGTA | -0.14
145 | AGGCACACGTGTGGCG | 0.14
146 | GCGGTCACGTGTTGGT | 0.15
